According to PubChem BioAssay AID1347073 (National Center for Advancing Translational Sciences (NCATS), 2019):
The whole screen tested about 45,000 compounds, of which about 200 (0.44%) were called active. About 7% were inconclusive and are not listed. Calls follow the shape of the dose curve; as a rule, active = well fitted activation curve with a large enough effect; inconclusive = small, poorly fitted or top-dose-only effect; inactive = no such curve, though single readings can be large or run the other way. This is one part of the list.
Potency is read from the fitted curve at half-maximal effect.

Experiment: qHTS of TDP-43 Inhibitors: NCGC Sytravon Library Screen; also: nearly all actives have a fitted effect of over 55% in size; as to growth rescue (activation): 0% is about no effect
Conditions: yeast TDP-43 toxicity rescue, BacTiter-Glo growth, 24 h; series mostly up to 46.1 µM; growth rescue (activation): at the top concentration
Outline: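 TDP-43-expressing yeast, pregrown in raffinose, seeded at OD600 0.02 in galactose medium with compound for 24 hr at 30 deg C. Growth read by BacTiter-Glo luminescence, so rescue of toxicity appears as activation.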
For `C[C@@H]1CN(C2CCN(Cc3nc(CC4CC4)no3)CC2)C[C@H](C)O1`, the “growth rescue (activation)” value was inactive: -2.32%. In the case of `Cc1cccc(C)c1NC(=O)c1ccc2c(c1)CCN2S(C)(=O)=O`, the “growth rescue (activation)” value is reported as inactive: 5.18%. For `C/C(CC(=O)Nc1ccc(N(C)C)cc1)=N\NC(=O)c1ccc([N+](=O)[O-])cc1`, the “growth rescue (activation)” value was inactive: 5.79%. For `O=C(CCc1ccccc1)NNC(=O)c1cc(Cl)ccc1O`, the “growth rescue (activation)” value was inactive: 2.7%. In the case of `O=C(Nc1cccc(C(F)(F)F)c1)Nc1cccs1`, the “growth rescue (activation)” value is reported as inactive: 15%. In the case of `O=C(NC(Cc1ccccc1)C(=O)N1CCN(S(=O)(=O)c2ccccc2F)CC1)c1ccccc1` (configuration not stated), the “growth rescue (activation)” value is reported as inactive: 10.3%. For `COc1cc(C(C(=O)NC2CCCCC2)N(C(=O)Cc2c[nH]c3ccccc23)c2ccc(C)cc2)cc(OC)c1OC` (configuration not stated), the “growth rescue (activation)” value was inactive: -8.08%. In the case of `O=C(CCN1C(=O)c2ccccc2C1=O)NC(=S)Nc1ccccc1`, the “growth rescue (activation)” value is reported as inactive: 20%. With `O=C(COC(=O)c1cc([N+](=O)[O-])ccc1N1CCCC1)Nc1ccccc1OC(F)F` the “growth rescue (activation)” value was inactive: 20.2%. For `O=C(Cn1c(C(F)(F)F)nc2ccccc21)N/N=C/c1ccco1`, the “growth rescue (activation)” value was inactive: 9.39%. With `Cc1ccc(-n2c(SCC(=O)Nc3cc(S(=O)(=O)N4CCOCC4)ccc3Cl)nc3ccccc3c2=O)cc1` the “growth rescue (activation)” value was inactive: 2.97%. With `C/C(=N\Nc1nc(Cl)c(Cl)cc1Cl)c1ccc(S(=O)(=O)NCc2ccco2)cc1` the “growth rescue (activation)” value was inactive: 27%. For `COc1ccc(S(=O)(=O)N2CCCCC2)cc1NC(=O)Cn1cnc2c1c(=O)n(C)c(=O)n2C`, the “growth rescue (activation)” value was inactive: 12.7%. With `O=C(NC12CC3CC(CC(C3)C1)C2)c1cncc(Br)c1` the “growth rescue (activation)” value was inactive: 6.52%. In the case of `O=C(CSCc1ccc(Br)cc1)N=Nc1c(O)[nH]c2ccccc12`, the “growth rescue (activation)” value is reported as inactive: 7.58%. With `COc1ccc(OC)c(NC(=O)CCNS(=O)(=O)c2cccc3nsnc23)c1` the “growth rescue (activation)” value was inactive: 11.3%. For `Cc1c(Cl)cccc1NC(=O)CSc1sc2c(O)cc(=O)[nH]c2c1C#N`, the “growth rescue (activation)” value was inactive: 7.95%. In the case of `O=C1CN(C(=O)CSc2nnc(Nc3ccccc3)s2)c2ccccc2N1`, the “growth rescue (activation)” value is reported as inactive: 10.5%. For `COc1ccc(OC)c(C(=O)c2ccc(C(=O)N3CCN(Cc4csc(C)n4)CC3)cc2)c1`, the “growth rescue (activation)” value was inactive: -14.5%. In the case of `CC(=O)/C(N=Nc1ccc(C(=O)O)cc1)=C(\C)O`, the “growth rescue (activation)” value is reported as inactive: 19.5%. For `O=C(O)c1cc(-c2cc3ccccc3o2)nn1-c1ccccc1`, the “growth rescue (activation)” value was inactive: 9.63%. In the case of `Cc1cccc(NS(=O)(=O)c2ccc3[nH]c(=O)[nH]c3c2)c1C`, the “growth rescue (activation)” value is reported as inactive: 0.669%. In the case of `CCOc1ccccc1NC(=O)CCNS(=O)(=O)c1cccc2nsnc12`, the “growth rescue (activation)” value is reported as inactive: -3.42%. With `Cc1cc(C)nc(N/N=C/c2cn[nH]c2-c2ccccc2)n1` the “growth rescue (activation)” value was inactive: 12.8%. For `CCOC(=O)c1cc(CC)sc1N1C(=O)CC(Sc2ncccc2C(=O)O)C1=O` (configuration not stated), the “growth rescue (activation)” value was inactive: -8.6%. For `O=C(CNC(=O)c1ccc2c(c1)OCCO2)N/N=C/c1ccc([N+](=O)[O-])cc1`, the “growth rescue (activation)” value was inactive: -9.4%. For `CCOc1ccc(NC(=O)C/C(C)=N/NC(=O)COc2ccc(Br)cc2C)cc1`, the “growth rescue (activation)” value was inactive: 16.3%. For `CC(/C=N/n1c(-c2cc(C)[nH]n2)n[nH]c1=S)=C\c1ccccc1`, the “growth rescue (activation)” value was inactive: 20%. For `Cc1ccc(Cl)cc1-c1cc(C(=O)NCc2cc(C(F)(F)F)cc(C(F)(F)F)c2)[nH]n1`, the “growth rescue (activation)” value was inactive: 3.29%. For `CCOc1ccccc1N1CCN(S(=O)(=O)c2cc(C)ccc2OC)CC1`, the “growth rescue (activation)” value was inactive: 37.6%. With `Cc1[nH]c2ccccc2c1/C=N/NC(=O)CNC(=O)COc1ccccc1` the “growth rescue (activation)” value was inactive: -13.2%. With `Cc1ccccc1N1CCN(C2CCCN(C(=O)c3csc(C(C)C)n3)C2)CC1` (configuration not stated) the “growth rescue (activation)” value was inactive: 6.93%. For `NS(=O)(=O)c1ccc(N/C=C\C(=O)c2cccc3ccccc23)cc1`, the “growth rescue (activation)” value was inactive: 5.09%. For `O=C1NCCN(C(=O)CCc2nnc(-c3ccsc3)o2)C1c1ccc(F)cc1` (configuration not stated), the “growth rescue (activation)” value was inactive: -10.3%. In the case of `CCOc1cc(N2CCOCC2)c(OCC)cc1NC(=O)CN1CCN(Cc2ccc3c(c2)OCO3)CC1`, the “growth rescue (activation)” value is reported as inactive: 6.72%. In the case of `Cc1ccc(S(=O)(=O)N2CCN(C(C)C(=O)N3CCCc4ccccc43)CC2)cc1` (configuration not stated), the “growth rescue (activation)” value is reported as inactive: 3.77%. With `O=C1CN(C(=O)/C=C/c2ccc(Cl)cc2)c2ccccc2N1` the “growth rescue (activation)” value was inactive: 18.3%. In the case of `CCOC(=O)c1sc(SC)nc1N`, the “growth rescue (activation)” value is reported as inactive: 18.3%. With `OCc1ccccc1OCCCN1CCC(Cc2ccccc2)CC1` the “growth rescue (activation)” value was inactive: 2.1%. For `CCCCNC(=O)C1(C)CCN1C(=O)c1cccc2c1OCCO2` (configuration not stated), the “growth rescue (activation)” value was inactive: -4.89%. For `C=CCNc1ncnc2c1ncn2[C@H]1CN(Cc2ccc3c(c2)OCO3)C[C@@H](CO)O1`, the “growth rescue (activation)” value was inactive: 9.65%. In the case of `Cc1ccc(S(=O)(=O)N2CCN(C(=O)N(C)C)CC2)cc1C`, the “growth rescue (activation)” value is reported as inactive: -4.98%. With `COc1ccc(CNC(=O)c2cc(=O)c3ccc(C)c(C)c3o2)cc1` the “growth rescue (activation)” value was inactive: 19.9%. In the case of `Clc1ccc(OCCOCCOc2cccc3cccnc23)c(Br)c1`, the “growth rescue (activation)” value is reported as inactive: 0.338%. In the case of `CC(NC(=O)c1ccccc1F)c1nnc(SCC(=O)NC2=NCCS2)n1C` (configuration not stated), the “growth rescue (activation)” value is reported as inactive: -0.473%. With `CCCSc1nc2c3c(sc2c(=O)[nH]1)CC(C)(CC)OC3` (configuration not stated) the “growth rescue (activation)” value was inactive: 2.98%. In the case of `O=C(CN1C(=O)c2ccccc2C1=O)Nc1ccc(-c2nc3ccccc3o2)cc1`, the “growth rescue (activation)” value is reported as inactive: 23.7%. With `CC1Cc2ccccc2N1C(=O)COC(=O)c1c2c(nc3ccccc13)CCCCC2` (configuration not stated) the Potency was active: 14.1 µM. With `COc1cc(-c2nnc(SCC(=O)O)n2-c2ccccc2)cc(OC)c1OC` the “growth rescue (activation)” value was inactive: -3.28%. With `Cc1ccc(C)c(-c2cc(C(=O)Nc3cccnc3)c3ccccc3n2)c1` the “growth rescue (activation)” value was inactive: -6.32%. In the case of `Cc1sc2ncn(CC(=O)N3CCN(c4ccccn4)CC3)c(=O)c2c1S(=O)(=O)N1CCC(C)CC1`, the “growth rescue (activation)” value is reported as inactive: 3.7%. With `CCC(C(=O)N1CCN(c2ccccn2)CC1)n1nc(C)n2c(cc3occc32)c1=O` (configuration not stated) the “growth rescue (activation)” value was inactive: -9.93%.
